The supplement of paper PMC11417369
± gives the standard deviation of the averaged measurements. The list shows a part of the results.

test system: PfAP2-I AP2 domain 3 (GST-tagged); assay: gcPBM binding intensity (ln(normalized median fluorescence intensity)); higher = stronger DNA binding
Summary of the method: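 GST-fused DNA-binding domains of P. falciparum, expressed in E. coli, were applied at about 25 μg on average for 1 h to an Agilent 4 × 180k array of primer-extended double-stranded 36-bp intergenic genomic probes and negative controls. Binding intensity is the highest Masliner-normalised natural-log median intensity across replicate spots of either probe orientation, measured with Alexa488 anti-GST antibody and a 488 nm scan.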

Sequence | gcPBM binding intensity (ln)
TTTATGACTTGAAAAAGTACACATATATTTATGCAA [XGTACX_site5451] | 7.91 ± 0.2
TTGTTTTCTTTTTCTTTTCTTTTTCTTTTTTCTTTT [GTGCAC_negctrl_site629] | 7.55 ± 0.73
TATATATATATAAAGACACACATCTATAGAATGTTA [CACACA_site2557] | 9.21 ± 0.36
TATTTATATTTATACACACACACAAAAAAAAAAAAA [CACACA_site6817] | 8.16 ± 0.57
TATATATATATACCTTGTACTTACATTCGCATATAA [XGTACX_site2466] | 9.32 ± 0.42
AAAAAAAAAAAAAAAGCACACACACCGATGTGTATA [CACACA_site8224] | 8.79 ± 0.38
CCATTACCATATAAAACACACAAACATACATACATA [CACACA_site5952] | 7.87 ± 0.52
GTATAATTATGTGCACGTACATATTTTATTATATAT [XGTACX_site8586] | 10 ± 0.28
ACATAAATATATGACACACACACATATTATATATAT [CACACA_site3065] | 8.36 ± 0.52
GTACGTTAGATATATACACACATACATAATAAAGAA [CACACA_site7327] | 8.04 ± 0.59
TTACCCATTCCCTTTACATGCAATTTGTATTAATAA [TGCATGCA_site412] | 8.46 ± 0.35
TTAATTCTACTTATTACACACATATTAAGCAAAAAT [CACACA_site4921] | 7.93 ± 0.35
ATATGTTCCGAAGGTTGTACACACATAGAAATATAC [XGTACX_site8227] | 8.23 ± 0.71
AAAATATATACAATATGTACATATATATATATATAT [XGTACX_site1898] | 9.35 ± 0.38
AAAAGGAAAAATATCACACATATATATATATATATA [CACACA_site5586] | 9.57 ± 0.48
ATTATTATACACAAATGTACATGTGAATTTTTTTTC [XGTACX_site6982] | 7.95 ± 0.39
AATAAGTAACAAAATACACACATATAGGTAATTATA [CACACA_site6949] | 7.62 ± 0.59
ATATATATTTATAGGTGTACAAAATACTATTTTAGG [XGTACX_site8499] | 7.84 ± 0.45
AACTGATATTAATTCTGTACCTATACGTTATATGTT [XGTACX_site1003] | 7.73 ± 0.62

Sequence | gcPBM binding intensity (ln)
TATGAACATATATATTGTACAAAATTATAATTTCAA [XGTACX_site6406] | 7.58 ± 0.38
AAGCGAATCTATATCACACACAAAAAAATCAGACTA [CACACA_site7072] | 7.63 ± 0.57
AGTTCAGAATTGAATAGTACATAAATATAACAAAAT [XGTACX_site650] | 7.91 ± 0.65
TATATATATTCTTTGTGTACTCATATAAGGGTAGAA [XGTACX_site8121] | 8.16 ± 0.29
TTTTTAGAAAAGGTTATAAAAAATTAATTGAAAAAA [GTGCAC_negctrl_site289] | 7.68 ± 0.54
AATCAATATTATATATGTACTTATTTTCACTTTTGC [XGTACX_site1775] | 7.81 ± 0.47
TTGTCATTATTATATTGTACAATAAGTATTAAAGAA [XGTACX_site1205] | 8.01 ± 0.57
AATAAACAAATAAATAAATAAACAGATAAATAAATC [CACACA_negctrl_site920] | 7.71 ± 0.69
GAGAACATTGATACACGTACATAAGTTATAAGTATT [XGTACX_site7665] | 7.89 ± 0.47
AAGCATCCTACTGATTGTACATATATATATATATAT [XGTACX_site2150] | 9.54 ± 0.13
TAATATATATAACAAGTGCAAAAAAATATAGATATT [GTGCAC_site9625] | 9.38 ± 0.33
TTAGGTTATAAATACACACACAAAAGAAAAAAAAAA [CACACA_site5625] | 8.06 ± 0.61
TATTTAAATTAATATTGTACATATATTTATAATATA [XGTACX_site6109] | 7.52 ± 0.3
TTTATTTATATAATTACACACATATATACACAAATG [CACACA_site8903] | 7.81 ± 0.55
AAATATATTATATATGCATGCGCCAAGATTTATATA [TGCATGCA_site770] | 7.75 ± 0.38
AAAAATAAATATACATGTACATAATAATAATATATA [XGTACX_site8359] | 7.66 ± 0.099
TTTGAAAAAAAATATTGTACACGTGAATAAAGTATT [XGTACX_site644] | 8.14 ± 0.6
TTGCATCTATTTTTGAGTACACAATGAGAATAATTA [XGTACX_site7171] | 8.03 ± 0.31
TTAAAAAAGTAATTAACACACAATAATGTAATGCAT [CACACA_site4176] | 8.18 ± 0.55

Sequence | gcPBM binding intensity (ln)
AAAAAAAAAAGACACACACACACATACACATACATA [CACACA_site7362] | 7.96 ± 0.29
TATATATATATATATATATATATATATATAATTTGA [XGTACX_negctrl_site3] | 8.88 ± 0.46
ACCCAAAATATATTCACACAAAAAATATTAAAAATA [CACACA_site5433] | 7.72 ± 0.26
TTTTTTTTTTTTTGAACACACATTATTAACTTTTAT [CACACA_site6281] | 8.07 ± 0.78
CGCGAACATACATACACACACATATATATATATGTA [CACACA_site205] | 7.84 ± 0.52
AAAAAAAAGTTATATACACACATATAAATATAAATA [CACACA_site6683] | 7.65 ± 0.49
TATATATTTTATATATGTACATATTTATATGTTTCT [XGTACX_site1818] | 7.57 ± 0.057
AAAAATATTAAAAGGCGTACAATACCTGTATGCAAC [XGTACX_site6069] | 7.97 ± 0.47
CATGTAAAATATTAAAGTACATGATTATATATATAT [XGTACX_site7486] | 9.11 ± 0.16
TATATTTATATAATATGTACATATTTTTTAATATTT [XGTACX_site3834] | 7.55 ± 0.19
TATTTTATTTTCCGAAGTACAAAAGCAAAAAAAAAC [XGTACX_site103] | 8.36 ± 0.35
AGCTAAAATATTTTTGCACACGATTTTTTTTTTTTT [CACACA_site1140] | 8.79 ± 0.57
ATAATATGAGTCCCACAAAATAGACCATACGAATAT [CACACA_negctrl_site50] | 7.88 ± 0.36
TATAAATTTATACCAGTGCATTTTGAAATATATATA | 9.47 ± 0.057
TGGAACCATAAAAAGTGTACACATATAAAAAATATG [XGTACX_site96] | 8.1 ± 0.35
ATTTTAATTTTGTATACACACATTTGAATTATTAAT [CACACA_site3528] | 7.65 ± 0.61
AAATAATACATTCGTACTACACATATATATTAAATA [XGTACX_site7806] | 7.84 ± 0.41
TAAAATGTTATAAGAACATGCAATTCCTTTTATTAT [TGCATGCA_site408] | 7.53 ± 0.69
AATATATACATATATACACACACATATATATATATA [CACACA_site8907] | 9.22 ± 0.55
